# Assay results taken from the supplement of paper PMC12217912.
# This is one part of the list. The full chains were built here from the parent and the listed change. Values near 0.05 are background.
# B1: TEV protease; numbered along this chain (parent)
# chain: MGESLFKGPRDYNPISSSICHLTNESDGHTTSLYGIGFGPFIITNKHLFRRNNGTLVVQSLHGVFKVKDTTTLQQHLVDGRDMIIIRMPKDFPPFPQKLKFREPQREERICLVTTNFQTKSMSSMVSDTSCTFPSGDGIFWKHWIQTKDGQCGSPLVSTRDGFIVGIHSASNFTNTNNYFTSVPKNFMELLTNQEAQQWVSGWRLNADSVLWGGHKVFMVKPEEPFQPVKEATQL
# Variants of: B1
# Test: raw area under fraction-flipped curve 0-4 h after induction (AUC4h, not background-subtracted), DNA-recorder readout of cleavage of the substrate (dimensionless); higher = more cleavage of the substrate by the protease variant
# Conditions: temperature: 34 °C; time window: 0-4 h after rhamnose induction
# Method: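 In vivo DNA recorder in E. coli TOP10(DE3) ΔrhaA at 34 °C. Each TEVp single-site mutant (parent TEVp 0) is paired with a single-site variant of the 7-mer TEVs (canonical ENLYFQ|S). The substrate sits between flexible linkers in a Bxb1-sfGFP-TEVs-SsrA fusion, so cleavage stabilises Bxb1 and speeds flipping of a recombination array, read by NGS. The value is the raw area under the fraction-flipped curve over 0-4 h after rhamnose induction (AUC4h), with ≥20 reads per time point. It is not background-subtracted; inactive controls average about 0.047.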
# 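Note: Bxb1 expression induced with 0.2% (w/v) L-rhamnose at OD600 near 0.5, cultures sampled hourly, flipped fraction per protease–substrate barcode pair counted by paired-end Illumina sequencing.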
Variant,area with substrate EALYFQS,area with substrate ECLYFQS,area with substrate EDLYFQS,area with substrate EGLYFQS,area with substrate EILYFQS,area with substrate EKLYFQS,area with substrate EMLYFQS,area with substrate EVLYFQS,area with substrate EYLYFQS,area with substrate ELLYFQS,area with substrate EPLYFQS,area with substrate EQLYFQS,area with substrate ERLYFQS,area with substrate EELYFQS,area with substrate EHLYFQS,area with substrate ESLYFQS,area with substrate EWLYFQS,area with substrate EFLYFQS,area with substrate ETLYFQS
G214I,0.0688,0.0816,0.0804,0.0881,0.0663,0.0579,0.0889,0.072,0.0667,–,–,–,–,–,–,–,–,–,–
G214H,0.132,0.0963,0.103,–,0.0858,0.0735,0.083,–,0.0912,0.0874,0.136,0.101,0.0721,–,–,–,–,–,–
F226L,0.113,0.087,–,0.0828,–,0.113,0.116,–,0.131,0.11,0.104,0.146,0.108,0.1,0.128,0.104,0.102,–,–
D208A,0.123,0.0763,–,0.0679,–,0.073,–,–,–,0.088,–,0.0826,–,–,0.0765,–,–,0.0702,0.085
S209M,0.118,0.088,–,–,–,0.102,0.148,0.11,0.116,0.0946,0.103,0.123,–,0.108,–,–,0.0961,–,–
V220H,0.124,0.0953,0.129,0.105,0.124,0.102,0.124,0.104,–,0.0835,0.181,0.104,0.13,0.143,0.125,0.108,0.0967,–,0.105
W203H,0.0971,0.0639,0.105,0.0688,0.0568,–,0.061,–,–,0.06,–,0.0646,0.0667,–,0.0586,0.075,0.0701,–,0.0747
W203T,0.0588,–,0.0706,0.046,0.0619,0.0574,0.0729,0.0635,–,0.0685,0.072,0.0884,0.0623,0.0585,0.0664,0.0674,–,0.0664,–
W212I,0.141,0.132,–,0.0783,0.148,0.155,0.129,0.114,–,–,0.146,0.142,0.141,–,–,0.139,0.133,–,0.168
W212T,0.0926,0.0882,0.112,0.0755,0.0524,0.0842,–,–,–,–,0.118,0.0953,0.0792,–,–,–,0.108,–,–
W212H,0.0962,–,0.0994,–,0.0865,0.0888,–,–,0.0512,–,–,–,0.0703,–,–,0.0065,–,–,0.0774
W199T,0.0704,0.0694,0.0805,–,0.057,0.0633,0.0653,0.0397,–,–,0.0771,0.0577,0.0954,–,–,0.0793,–,–,0.0794
N206D,0.142,0.129,0.16,0.141,0.0967,0.116,0.13,0.0963,0.129,–,–,0.137,0.12,–,–,0.125,0.135,–,0.127
N206M,0.196,–,0.136,–,–,–,0.165,–,–,–,–,0.124,–,–,–,0.127,0.0999,–,–
P225Y,0.0907,0.011,–,0.0936,0.0754,–,0.057,0.11,0.0933,–,–,–,0.0876,0.145,–,0.095,0.0797,–,–
